{
  "source": "PubChem BioAssay AID686979",
  "about": "(National Center for Advancing Translational Sciences (NCATS), 2013)",
  "note": "Among all 420,000 compounds or so, about 50,000 (12%) were called active. Inconclusive means that the source gave no clear call. Such entries were picked first, then a sample of the others. The call rests on the fitted dose curve; in most records, active means well fitted inhibition curve with a large enough effect; inconclusive means small, poorly fitted or top-dose-only effect; inactive means flat fitted curve, though single readings scatter. No potency is given beside an inconclusive call; the fits are too rough. On the % scale 0 is the no-effect control and ±100 the full control effect; potency means the concentration at half of the fitted maximal effect; tags describe the fitted curve by direction and shape.",
  "data": [
    {"experiment": "qHTS for Inhibitors of human tyrosyl-DNA phosphodiesterase 1 (TDP1): qHTS in cells in presence of CPT; further: nearly all actives have a fitted effect of over 55% in size", "details": "chicken DT40 Tdp1-/-;hTDP1 cells + 20 nM CPT, ATP luminescence, 48 h; activity change, negative = growth inhibition: at 46.2 µM (top of the series) unless noted", "outline": "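Chicken DT40 Tdp1-/- cells stably complemented with human TDP1 were seeded at 400 cells/well in medium containing 20 nM camptothecin, exposed to pin-transferred compounds, and grown at 37 °C for at least 48 hr. Viability was read as ATP luminescence.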", "values": [
      {"smiles": "O=c1c(N2CCN(c3cccc(C(F)(F)F)c3)CC2)csc2ccccc12", "Potency": "active: 20.6 µM"},
      {"smiles": "CCOC(=O)c1cnn(CC2CCCCC2)c1N", "Potency": "inconclusive [inhibitor, single point]"},
      {"smiles": "Oc1oc(-c2ccco2)nc1C=Nc1cccc(Cl)c1", "Potency": "inconclusive [inhibitor, single point]"},
      {"smiles": "CC(C)(C)c1ccc(CSc2nc3c(c(=O)[nH]2)CCCC3)cc1", "Potency": "inconclusive [inhibitor, single point]"},
      {"smiles": "COc1cccc(-c2cnc3c(NC(C)=O)cc(-c4cc(OC)c(OC)c(OC)c4)cn23)c1", "Potency": "inconclusive [inhibitor, single point]"},
      {"smiles": "Cc1ccccc1CNC(=O)c1ccccc1NC(=O)c1nsc2ccccc12", "Potency": "inconclusive [inhibitor, partial curve]"},
      {"smiles": "CCC1CCC(C(=O)NC(C(=O)NCCN(CC(C)C)CC(C)C)C(C)C)CC1", "note": "(stereo unspecified)", "Potency": "inactive"},
      {"smiles": "Cn1c(=O)c2c(nc(OCc3cccnc3)n2Cc2c(F)cccc2Cl)n(C)c1=O", "Potency": "inconclusive [inhibitor, single point]"},
      {"smiles": "CN1CCN(NC(=O)c2cc(S(=O)(=O)N3CCOCC3)c(Cl)cc2Cl)CC1", "Potency": "inactive"},
      {"smiles": "CC1=NCCN1CCNC(=O)Nc1ccc(C(C)(C)C)cc1", "Potency": "inactive"},
      {"smiles": "Cc1cc(Br)ccc1NC(=O)CNC(=O)Cc1ccc(S(=O)(=O)N2CCOCC2)s1", "Potency": "inconclusive [inhibitor, single point]"},
      {"smiles": "O=C1CCC[C@@H]2Cc3nc4ccc(Cl)cc4cc3[C@@H]3CCN1[C@H]23", "Potency": "inconclusive [inhibitor, single point]"},
      {"smiles": "COCCN(Cc1cc2ccc(C)c(C)c2nc1Cl)C(=O)N1CCOCC1", "Potency": "inconclusive [inhibitor, single point]"},
      {"smiles": "CCOc1ccc(Nc2c(S(=O)(=O)c3ccc(Cl)cc3)cnc3ccc(OC)cc23)cc1", "Potency": "inconclusive [inhibitor, single point]"},
      {"smiles": "O=C(Nc1ccc(F)cc1)N1CCN(c2ccc3nnc(-c4ccc(F)cc4)n3n2)CC1", "Potency": "inconclusive [inhibitor, single point]"},
      {"smiles": "CCCCCn1c(=O)[nH]c2cc(C(=O)N3CCN(C(=O)OCC)CC3)ccc2c1=O", "Potency": "inconclusive [inhibitor, single point]"},
      {"smiles": "CCOc1ccc(S(=O)(=O)N(CC)CC)cc1NC(=O)c1ccc(N2CCCC2=O)cc1", "Potency": "inconclusive [inhibitor, single point]"},
      {"smiles": "CCOC(=O)c1ccc(-c2ccc(N3C(c4ccsc4)=Cc4ccc(F)cc4C3c3c[nH]c4ccc(C#N)cc34)cc2)cc1F", "note": "(stereo unspecified)", "Potency": "inactive"},
      {"smiles": "COc1ccc(-c2csc(NC(=O)c3ccccc3NS(=O)(=O)c3ccc(F)c(F)c3)n2)cc1", "Potency": "active: 2.31 µM"},
      {"smiles": "CC(C)(C)NC(=O)C(OC(=O)c1cccs1)c1ccc(F)cc1", "note": "(stereo unspecified)", "Potency": "inactive"},
      {"smiles": "CCc1nc2ccc(C(=O)NCCCN3CCCC3=O)cn2c1N(C)C(=O)c1cccc(OC)c1", "Potency": "inactive"},
      {"smiles": "C[C@@H](NC(=O)c1nc[nH]c1C(=O)N[C@@H](Cc1ccccc1)C(=O)OCc1ccccc1)c1ccccc1", "Potency": "inconclusive [inhibitor, single point]"},
      {"smiles": "COc1ccc(-c2c3c(=O)n(C)c(=O)n(C)c3cn2-c2cccc(N)c2)cc1", "Potency": "inconclusive [inhibitor, single point]"},
      {"smiles": "O=C(CCS(=O)(=O)c1ccc(Br)cc1)N1CCN(c2ccccc2)CC1", "Potency": "inconclusive [inhibitor, single point]"},
      {"smiles": "COc1ccc(-c2cn3c(n2)sc2cc(C(=O)NCc4cccs4)ccc23)cc1", "Potency": "active: 10.3 µM"},
      {"smiles": "CCOc1ccc(C(=O)Nc2ccc(N3CCN(C)CC3)cc2)cc1Br", "Potency": "inconclusive [inhibitor, single point]"},
      {"smiles": "CCOc1ccc(S(=O)(=O)N/N=C2/CC(c3ccccc3)Oc3ccccc32)cc1", "note": "(stereo unspecified)", "Potency": "inconclusive [inhibitor, single point]"},
      {"smiles": "O=C(NCC12CC3CC(CC(C3)C1)C2)c1nn2c(c1Cl)NC(c1ccco1)CC2C(F)(F)F", "note": "(stereo unspecified)", "Potency": "inconclusive [inhibitor, single point]"},
      {"smiles": "CNc1nc(-c2ccc3c(c2)CCN3S(=O)(=O)c2ccccc2)c(C)s1", "Potency": "inconclusive [inhibitor, partial curve]"},
      {"smiles": "Cc1cc2n(n1)C(c1ccccc1)CC(c1ccc(Br)cc1)=N2", "note": "(stereo unspecified)", "Potency": "active: 16.4 µM"},
      {"smiles": "Cc1c(Cl)cccc1NC(=S)NC1CCN(C(C)C)CC1", "Potency": "inactive"},
      {"smiles": "CC(C)C(C)NC(=O)COc1ccc([N+](=O)[O-])cc1Cl", "note": "(stereo unspecified)", "Potency": "active: 8.2 µM"},
      {"smiles": "CCCCCCSc1ccc([C@@H]2[C@@H]3C(=O)N(CC)C(=O)[C@@H]3[C@]3(C(=O)OC)CCCCN23)cc1", "Potency": "active: 18.4 µM"},
      {"smiles": "COc1ccc(CC(=O)Oc2ccc(Br)cc2F)cc1S(=O)(=O)N1CCOCC1", "Potency": "inactive"},
      {"smiles": "Cc1c(C(=O)c2ccccc2)c2ccccn2c1CCC#N", "Potency": "inactive"},
      {"smiles": "CC(C)C(=O)Nc1c(C(=O)c2ccc(F)cc2)oc2ccccc12", "Potency": "inconclusive [inhibitor, single point]"},
      {"smiles": "Nc1nc(Cl)cc(N2CCC(c3cc(-c4ccc(Cl)cc4)n[nH]3)CC2)n1", "Potency": "active: 3.55 µM"},
      {"smiles": "CN(C)CC/C=C1/c2cc(F)ccc2Sc2ccc(Cl)cc21", "Potency": "inconclusive [inhibitor, single point]"},
      {"smiles": "O=C1NC(=O)C2(CCCC2c2ccccc2)N1", "note": "(stereo unspecified)", "Potency": "inactive"},
      {"smiles": "COc1ccc(Cc2nnc(SC)n2-c2ccc(F)cc2)cc1OC", "Potency": "inactive"},
      {"smiles": "CCOC(=O)N1CCC(NC(=O)c2cc(C(=O)Nc3ccc(S(=O)(=O)N4CCCCC4)cc3)ccc2CO)CC1", "Potency": "inconclusive [inhibitor, partial curve]"},
      {"smiles": "CCn1cc(C(=O)NCCc2ccc(Cl)cc2)c(=O)c2cc(S(=O)(=O)N3CCc4ccccc4C3)ccc21", "Potency": "inactive"},
      {"smiles": "FC(F)(F)c1cccc(-n2cc(-c3ccccc3)[nH]c2=S)c1", "Potency": "inconclusive [inhibitor, partial curve]"},
      {"smiles": "CCOC(=O)C1CCN(C(=O)C(=O)Nc2ccc3nc4n(c(=O)c3c2)CCCCC4)CC1", "Potency": "inactive"},
      {"smiles": "C/C(=N\\Nc1ncnc2sc(C)c(C)c12)c1ccccn1", "Potency": "active: 0.103 µM"},
      {"smiles": "CC(=O)c1c(OC(=O)c2ccccc2)c2ccccc2n1C", "Potency": "inconclusive [inhibitor, single point]"},
      {"smiles": "O=C(NC1CCCC1)C(=O)N(Cc1cccnc1)C(C(=O)NCC1CCCO1)c1ccco1", "note": "(stereo unspecified)", "Potency": "inconclusive [inhibitor, single point]"},
      {"smiles": "COCCNC(=O)C(=O)NNC(=O)CCc1ccccc1", "Potency": "inactive"},
      {"smiles": "O=C(Nc1ccc(Cl)cc1)OCc1cncs1", "Potency": "inconclusive [inhibitor, single point]"},
      {"smiles": "CCC(c1nnnn1C(C)(C)C)N1CCN(C/C=C/c2ccccc2)CC1", "note": "(stereo unspecified)", "Potency": "inconclusive [inhibitor, partial curve]"},
      {"smiles": "c1ccc2sc(NN=C3CCCC3)nc2c1", "Potency": "inactive"},
      {"smiles": "CC(C)(CNC(=O)COc1ccccc1Cc1ccccc1)N1CCOCC1", "Potency": "inconclusive [inhibitor, single point]"},
      {"smiles": "Cc1c(NC(=O)Cc2ccc(F)cc2)cccc1-c1nc2cccnc2s1", "Potency": "inactive"},
      {"smiles": "O=C(NCc1ccc(F)cc1)C1CCCN(S(=O)(=O)c2ccc(-n3cnnn3)cc2)C1", "note": "(stereo unspecified)", "Potency": "inactive"},
      {"smiles": "Cc1cc(C)cc(NC(=O)CN2C(=O)COc3ccc(S(=O)(=O)N4CCCC4)cc32)c1", "activity change, negative = growth inhibition": "inconclusive: -30.1% [inhibitor]"},
      {"smiles": "Cc1cccc(NC(=O)CSc2nc3ccc(NC(=O)COc4ccc(Cl)cc4)cc3s2)c1", "Potency": "active: 7.31 µM"},
      {"smiles": "CCCc1nc(N2CCN(S(=O)(=O)c3ccc(Cl)cc3)CC2)c2c(C)c(C)sc2n1", "Potency": "inconclusive [inhibitor, single point]"},
      {"smiles": "Cc1cc(C)c(-c2csc(NC(=O)C3=COCCO3)n2)c(C)c1", "Potency": "inconclusive [inhibitor, single point]"},
      {"smiles": "O=S(=O)(c1ccc(N2CCCC2)nc1)N1CCCC1", "Potency": "inactive"},
      {"smiles": "OC(CNCc1ccc(Cl)c(Cl)c1)c1ccccc1", "note": "(stereo unspecified)", "Potency": "inconclusive [inhibitor, single point]"},
      {"smiles": "O=C(CN(Cc1ccc(F)cc1)S(=O)(=O)c1ccccc1)N1CCCCC1", "Potency": "inconclusive [inhibitor, partial curve]"},
      {"smiles": "O=S(=O)(CCN(CCS(=O)(=O)C(F)(F)F)CC1CCCO1)C(F)(F)F", "note": "(stereo unspecified)", "Potency": "active: 2.31 µM"},
      {"smiles": "C=CCNC(=O)C(C#N)c1nc2ccccc2nc1N1CCCCCC1", "note": "(stereo unspecified)", "Potency": "inconclusive [inhibitor, partial curve]"},
      {"smiles": "Cc1cccc(NC(=O)c2cc3c(=O)n(Cc4ccco4)ccc3nc2C)c1", "Potency": "inconclusive [inhibitor, single point]"},
      {"smiles": "O=C(Nc1nnc(SCc2cc(=O)c3ccccc3[nH]2)s1)c1ccccc1", "Potency": "active: 23.1 µM"},
      {"smiles": "Cc1nn(-c2ccccc2)c2c1N(CC(=O)NCc1ccc(N(C)C)cc1)C(=O)CS2", "Potency": "inconclusive [inhibitor, single point]"},
      {"smiles": "O=C(Cn1nc(C(=O)O)c2ccccc2c1=O)Nc1ccc2c(c1)OCO2", "Potency": "inactive"},
      {"smiles": "Cc1ccc(N(CC(=O)NCc2ccc3c(c2)OCO3)S(=O)(=O)c2c(C)noc2C)cc1", "Potency": "inconclusive [inhibitor, single point]"},
      {"smiles": "CCOc1ccc(-c2[nH]ncc2-c2csc(C)n2)c(O)c1", "Potency": "inactive"},
      {"smiles": "COc1ccc(NC(=O)c2ccccc2O)c(OC)c1", "Potency": "inconclusive [inhibitor, single point]"},
      {"smiles": "O=C1C2C3C=CC(C3=C3CCCCC3)C2C(=O)N1Cc1ccccc1", "note": "(stereo unspecified)", "Potency": "inconclusive [inhibitor, single point]"}
    ]}
  ]
}
